Results taken from PubChem BioAssay AID488969 (Vanderbilt High Throughput Screening Facility, 2010).
Over roughly 110,000 compounds, “z-score” has its median near -0.1; the highest 2% begin near 2. The list shows a part of the results. Calls of active or inactive are those of the source.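 The calls were made as follows: active = z-score in the third read window above 3 or below -3; inactive = the rest.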

Target: Metabotropic glutamate receptor 8 (Rattus norvegicus) (UniProt P70579)
Assay: mGluR8 Gi/Go-coupled signaling modulation – cell-based, rat, thallium flux, HTS, primary screen (AID 488969)
Details: HEK293 rat mGluR8, GIRK (G protein-gated inwardly rectifying potassium channel) thallium flux, FluoZin2; at 10 µM; stronger effect = higher value; submaximal glutamate (EC20) added with thallium

Chain of UniProt P70579 (P70579 whole entry, looked up): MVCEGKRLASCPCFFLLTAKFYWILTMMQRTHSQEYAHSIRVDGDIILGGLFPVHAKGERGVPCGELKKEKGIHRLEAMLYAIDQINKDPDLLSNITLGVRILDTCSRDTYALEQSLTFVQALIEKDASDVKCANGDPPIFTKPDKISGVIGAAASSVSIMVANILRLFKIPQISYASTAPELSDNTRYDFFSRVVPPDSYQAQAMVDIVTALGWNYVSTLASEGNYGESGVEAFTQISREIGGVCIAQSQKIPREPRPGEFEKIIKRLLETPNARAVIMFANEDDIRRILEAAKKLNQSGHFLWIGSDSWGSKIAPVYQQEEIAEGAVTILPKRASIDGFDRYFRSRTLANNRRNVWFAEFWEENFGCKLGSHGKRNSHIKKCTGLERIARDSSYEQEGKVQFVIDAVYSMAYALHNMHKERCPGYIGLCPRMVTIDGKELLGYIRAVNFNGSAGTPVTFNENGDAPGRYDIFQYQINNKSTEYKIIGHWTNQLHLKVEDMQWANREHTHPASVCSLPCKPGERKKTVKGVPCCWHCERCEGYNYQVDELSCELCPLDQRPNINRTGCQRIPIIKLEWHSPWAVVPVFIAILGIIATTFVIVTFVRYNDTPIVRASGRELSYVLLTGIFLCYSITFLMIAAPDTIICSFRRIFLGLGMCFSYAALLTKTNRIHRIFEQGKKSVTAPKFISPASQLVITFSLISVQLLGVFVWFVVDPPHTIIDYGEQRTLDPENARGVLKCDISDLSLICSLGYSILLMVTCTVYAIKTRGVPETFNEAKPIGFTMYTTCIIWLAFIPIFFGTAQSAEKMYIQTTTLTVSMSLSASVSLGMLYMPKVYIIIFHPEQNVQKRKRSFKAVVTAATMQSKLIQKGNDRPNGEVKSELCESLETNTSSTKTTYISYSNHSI

| Structure (SMILES) | z-score |
| --- | --- |
| Cc1ccccc1OCC(=O)OCC(=O)c1ccc(OCc2ccccc2)cc1 | -0.23 |
| C=CCNC(=O)COC(=O)COc1ccc(Cl)cc1C | 0.482 |
| CC1=CC(=C(C#N)c2nc3ccccc3s2)C=C(C)N1c1ccc(F)cc1F | 0.0247 |
| O=C(NC(C(=O)N/N=C/c1c2ccccc2cc2ccccc12)c1n[nH]c(=O)c2ccccc12)c1ccccc1 (stereo not drawn) | -0.183 |
| CCCSC1=N/C(=C\c2ccc3c(c2)OCO3)C(=O)S1 | -0.203 |
| Cc1cccc(N=C2NC(=O)/C(=C\c3cccs3)S2)c1 | 0.692 |
| O=C(Nc1cnn(Cc2ccc(Cl)cc2)c1)c1ccc([N+](=O)[O-])cc1 | -1.03 |
| Cc1cc(Cl)ccc1NC(=O)C1CCCN1C(=O)c1cccs1 (stereo not drawn) | 0.00203 |
| COc1ccc(NC(=O)CSc2c(C)nn(-c3nnc(C)c(=O)[nH]3)c2C)cc1 | 0.603 |
| CC(=O)NC(CCS(C)(=O)=O)C(=O)Nc1ccc2c(c1)OCCO2 (stereo not drawn) | -0.0282 |
| C=CCNC(=S)Nc1sc2c(c1C(=O)OCC)CC(C)(CC)OC2 (stereo not drawn) | 2.22 |
| CN1CCc2nc(NC(=O)c3cccc(OC(F)F)c3)sc2C1 | 0.361 |
| CCN(CC)CCNC(=O)Cn1cnc2sc(C)c(S(=O)(=O)N3CCOCC3)c2c1=O | 0.572 |
| O=C1C2C3C=CC(C3)C2C(=O)N1c1cccc(N2C(=O)C3C4C=CC(C4)C3C2=O)n1 (stereo not drawn) | 0.232 |
| CCn1cc(C(=O)NC(C)C2CC3CCC2C3)cn1 (stereo not drawn) | 0.0567 |
| O=C(c1ccccc1)[C@H]1[C@H](c2ccccc2)[C@@]2(N=C(c3ccccc3)OC2=O)C2c3ccccc3C=NN21 (stereo partly drawn) | 0.0137 |
| O=C(COC(=O)CCc1nc2ccccc2s1)Nc1ncc(Cl)cc1Cl | -0.33 |
| CCn1c(C)nc2cc(C(=O)NNS(=O)(=O)c3ccc(C)cc3C)ccc21 | 0.497 |
| O=C(NCCN1CCCC1)C1COc2ccccc2O1 (stereo not drawn) | -0.161 |
| N=c1c2c(-c3ccccc3)c(-c3ccccc3)n(Cc3ccccc3)c2ncn1CCCO | active: 4.35 |
| Cc1csc2nnc(N)n12 | -0.196 |
| O=C(Nc1nncs1)c1cccc(S(=O)(=O)N2CCCCC2)c1 | 0.145 |

| Structure (SMILES) | z-score |
| --- | --- |
| COc1ccc(C(CCNCc2ccccc2F)c2ccc(F)cc2)cc1 (stereo not drawn) | active: 3.61 |
| CCOC(=O)c1sc(C)c2c1NC(C)(c1ccccc1)NC2=O (stereo not drawn) | -0.844 |
| Cc1cccc(-c2noc(-c3ccc(F)cc3)n2)c1 | -0.424 |
| O=C(CN1CCc2ccccc21)Nc1ccc2c(c1)OCO2 | 1.09 |
| CCc1ccc2c(c1)C(c1ccc([N+](=O)[O-])cc1)=NNC(c1ccc(C)cc1)=N2 | -0.102 |
| COc1ccc(CCNC(=O)c2c(C)noc2C)cc1 | -0.303 |
| CCC(=O)Nc1cccc(-c2cn3ccsc3n2)c1 | 0.036 |
| COc1ccc(N2CCN(C(=O)CSc3nnc4c(C)cc5ccc(C)c(C)c5n34)CC2)cc1 | 0.281 |
| CC12CC3CC(C)(C1)CC(C(=O)NC(=S)N1CCOCC1)(C3)C2 | active: 3.1 |
| COc1ccc(-c2nn(CCC(=O)O)cc2/C=C/C(=O)O)cc1[N+](=O)[O-] | -0.0549 |
| COc1ccc(CCNC(=S)NC(=O)/C=C/c2ccc(C)cc2)cc1OC | -0.0761 |
| Cc1ccccc1C(=O)N1CCN(c2ccccn2)CC1 | 0.732 |
| Cc1nnc(NC(=O)CSc2nc(C(C)C)nc3ccccc23)s1 | -0.197 |
| O=C(N/N=C/c1ccc(O)cc1)/C(=C/c1ccc([N+](=O)[O-])cc1)NC(=O)c1ccccc1 | -0.461 |
| CCSc1nc2cc(OC)c(OC)cc2c(=O)n1CCc1ccccc1 | 0.194 |
| Cc1nc(SCc2cccc(Oc3ccccc3)c2)n[nH]1 | 0.373 |
| O=C(NCCOc1nc(N2CCOCC2)nc(N2CCOCC2)n1)Nc1ccccc1 | -0.0497 |
| Cc1nc(SCC(=O)c2ccc(Cl)s2)c2oc3ccccc3c2n1 | -0.317 |
| CC(=O)Oc1ccc2c(c1)cc(C)n2C | 0.458 |
| c1ccc(CCc2nn3c(Cc4ccccc4)nnc3s2)cc1 | -1.08 |
| O=C(COCC(=O)N/N=C/c1ccccc1F)N/N=C/c1ccccc1F | -0.201 |
| COc1ccccc1CNC(=O)CCc1nc2ccccc2c(=O)[nH]1 | -0.227 |

| Structure (SMILES) | z-score |
| --- | --- |
| O=C1c2ccccc2C(=O)N1CCOCCN1C(=O)c2ccccc2C1=O | -1.37 |
| COC(=O)c1cc(OC)c(OC)cc1NC(=S)N1CCCC(CO)C1 (stereo not drawn) | -0.107 |
| COC(=O)c1c(C)oc2ccc(N(C(=O)Oc3ccccc3)S(=O)(=O)c3ccccc3)cc12 | -0.0489 |
| C=CCOC(=O)C1=C(C)OC(N)=C(C#N)C1c1ccc2c(c1)OCO2 (stereo not drawn) | -0.255 |
| COc1ccc(NC(=O)N2CCOCC2)cc1OC | 0.282 |
| O=C(CSc1nnc(-c2ccco2)n1-c1ccccc1)NCc1ccc2c(c1)OCO2 | -0.461 |
| CC(C)OC(=O)CC12CN(C)CC(CC(=O)OC(C)C)(CN(C)C1)C2=O | 0.458 |
| CCCCCCC(=O)N1CCN(c2cc3c(cc2F)c(=O)c(C(=O)O)cn3CC)CC1 | -0.065 |
| CCOC(=O)C1CCN(C(=O)c2cc(OCC)c(OCC)c(OCC)c2)CC1 | 0.856 |
| O=C(NCc1ccco1)c1sc(=S)n2c1[nH]c(=O)c1ccccc12 | 2.75 |
| Cc1cc(NC(=O)COC(=O)C(Nc2ccc(C(F)(F)F)cc2Cl)C(C)C)no1 (stereo not drawn) | 1.68 |
| Cc1ccccc1OCCNC(=O)CSc1ccc(C(F)(F)F)cc1[N+](=O)[O-] | -0.304 |
| CCOC(=O)C1CCN(C(=O)c2ccc(NC(=O)C3CCCO3)cc2)CC1 (stereo not drawn) | -0.0783 |
| CN1CCN(CC#CCC(O)(c2ccccc2)C2CCCC2)CC1 (stereo not drawn) | 0.354 |
| CCOc1ccc2[nH]cc(S(=O)(=O)c3ccc(F)cc3)c(=O)c2c1 | -0.159 |
| O=C(O)c1ccc2c(c1)OCCO2 | -0.253 |
| CSc1nnc(COc2ccc(C)cc2)n1N | 0.285 |
| CCn1c(CNC(=O)C23CC4CC(CC(C4)C2)C3)nnc1SCC(=O)Nc1nnc(C)s1 | -1.09 |
| Cc1cccc2c1N(C(=O)c1ccco1)C(C)(C)c1ssc(=S)c1-2 | -0.171 |
| COc1ccc2cc3c(N)nn(C(=O)c4ccccc4[N+](=O)[O-])c3nc2c1 | 0.426 |
| Cc1ccc2c(c1)c1c(n2CC(O)Cn2c(C)nc3ccccc32)/C(=N\O)CCC1 (stereo not drawn) | -0.101 |
| Cc1ccc(CNC(=O)COc2ccc(C(=O)c3ccc(F)cc3)cc2)cc1 | -0.0652 |

| Structure (SMILES) | z-score |
| --- | --- |
| CN1CCC(N(C)C(=O)CCc2nc3ccccc3c(=O)[nH]2)CC1 | -0.206 |
| O=C(COc1ccc(S(=O)(=O)NCCc2ccccc2)cc1)N1CCCC1 | 0.83 |
| Cc1nc(SCC(=O)c2c[nH]c3ccccc23)n[nH]1 | 0.483 |
| Cc1cccc(C2=NC(C(F)(F)F)(C(F)(F)F)c3c(n(-c4ccc(F)cc4)c(=O)[nH]c3=O)N2)c1 | -0.097 |
| O=C(Cc1cccc2ccccc12)Nc1ccc(-c2cc3ccccc3oc2=O)cc1 | -0.0246 |
| CC(=O)Nc1ccc(NS(=O)(=O)c2cccc3ccccc23)cc1 | -0.54 |
| Brc1ccc2ncnc(NCc3ccccc3)c2c1 | -0.496 |
| Cc1cc(C)c(C(=O)c2ccc(C(=O)NC(C)(C)C)cc2)c(C)c1 | -0.0823 |
| CCCCS(=O)CC(COCc1ccccc1)OC(=O)CSc1nc(C)cc(C)n1 (stereo not drawn) | -0.998 |
| CCS(=O)(=O)NCCc1cc2c(OC)ccc(OC)c2[nH]c1=O | -0.412 |
| O=C(NCCCn1ccnc1)C(F)(F)C(F)(F)C(=O)NCCCn1ccnc1 | 0.569 |
| Cc1nc(C)c(C(=O)NNS(=O)(=O)c2ccc3ccccc3c2)s1 | -0.00313 |
| CC(=O)Nc1ccc(-c2nc3c(C)cccc3[nH]2)cc1 | -0.411 |
| O=C1Nc2cc(C(=O)N3CCOCC3)ccc2SC1N1CCOCC1 (stereo not drawn) | 0.448 |
| CC(C)COC(=O)n1c(=O)oc2cc(S(=O)(=O)N3CCCCC3)ccc21 | -0.55 |
| CCn1c2ccccc2c2cc(/C=N/NC(=O)c3cccc(C)c3)ccc21 | -0.0891 |
| Cc1ccc(CNC(=O)c2ccc3c(=O)n(CCCN4CCCC4=O)c(=S)[nH]c3c2)cc1 | -0.167 |
| O=C(CSc1ccc(Cl)cc1)Nc1ccc(NC(=O)c2ccco2)cc1 | -0.0431 |
| CCn1nc(C)c(/C=N/NC(=O)Cn2nc(C)cc2C)c1C | -0.232 |
| CCSc1nnc(-c2ccccc2NC(=O)CC)c(=O)[nH]1 | -2.6 |
| O=C(NCCc1cn2ccccc2n1)c1ccccc1F | 0.0227 |
| CCC(=Nc1ccc(N)cc1)C1=C(O)C(C(=O)OC)C(C)(C)CC1=O (stereo not drawn) | -0.114 |

| Structure (SMILES) | z-score |
| --- | --- |
| O=C(OCc1cc2ccccc2[nH]c1=O)c1ccco1 | -0.253 |
| CC1=C(C(=O)Nc2ccc(C)cc2C)C(c2cccs2)NC(=S)N1 (stereo not drawn) | -0.388 |
| CCOC(=O)c1cc(-c2ccccc2)n(CCC(=O)N2CCN(c3ccccc3OC)CC2)c1C | -0.823 |
| CCOc1ccc(-n2c(C)c(C(C)=O)c(C(C)=O)c2C)cc1 | 0.0135 |
| CCOC(=O)c1ccc(N=C2S/C(=C\c3cc(C)n(-c4cccnc4)c3C)C(=O)N2C)cc1 | -0.0958 |
| O=C1c2cccc(OCC(=O)N3CCCc4ccccc43)c2CCN1Cc1ccccc1 | -0.397 |
| Cc1cc(N2CCC(C(N)=O)CC2)nc(-c2ccccc2)n1 | -0.114 |
| Cc1ccc(C)c(NC(=S)N2CCCCCC2)c1 | 0.0187 |
| Cc1cc(C)n(/N=C\c2c(O)ccc3ccccc23)c(=O)c1C(N)=O | 0.178 |
| CC1=N/C(=C\c2ccc([N+](=O)[O-])cc2)C(=O)N1c1cc(Cl)ccc1C | 0.0291 |
| c1ccc(C2Nc3ccccc3-c3nc4ccccc4n32)nc1 (stereo not drawn) | -0.506 |
| CCOC(=O)c1ccc(NS(=O)(=O)CC)cc1 | -0.0325 |
| N#Cc1c(-c2ccccc2)cc(C2CC2)nc1SCC(=O)O | -0.746 |
| O=C(CSc1nnc(-c2cccs2)n1-c1ccccc1)NCc1ccco1 | -0.271 |
| COc1cc(/C=N/NC(=O)COc2ccccc2[N+](=O)[O-])ccc1OC(=O)c1ccco1 | 0.646 |
| CCC(CCC(=O)Nc1ccc(S(N)(=O)=O)cc1)C(=O)O (stereo not drawn) | 0.735 |
| Cc1ccc([N+](=O)[O-])c(OCCN2CCNCC2)c1 | -0.292 |
| COc1ccccc1Nc1nc(N)nc(CSC(=S)N2CCCCC2C)n1 (stereo not drawn) | 0.0526 |
| O=C(NCCN1CCOCC1)Nc1ccc(Cl)cc1 | 0.201 |
| CCSc1nnc(NC(=O)CSc2nnc(CNC(=O)c3ccc(OC)c(OC)c3)o2)s1 | -0.363 |
